The list shows a part of the results. Cleavage of a single-stranded DNA pool by Rep nickase domains was read by sequencing for 1 h at 37 °C with 3 µM enzyme; only the middle of the 90-letter strands is printed. Numbers give uncut DNA relative to the enzyme-free pool, as log2; strong cutting gives strongly negative numbers. There is no active / inactive call. Counts are relative to all reads; where an enzyme cuts many sequences, the uncut ones exceed 0.
Legend:
Assay in all cases: uncleaved DNA left, log2 of reads against the no-enzyme library (log2 ratio); higher = less cleavage (more negative = more Rep cleavage of the k-mer); sequences stand for … in CTCGTCCG…ACCGGAGA
[1] = test system: T1, Rep nickase domain of Muscovy duck circovirus
T1 sequence (Rep 1-111, printed without the tag): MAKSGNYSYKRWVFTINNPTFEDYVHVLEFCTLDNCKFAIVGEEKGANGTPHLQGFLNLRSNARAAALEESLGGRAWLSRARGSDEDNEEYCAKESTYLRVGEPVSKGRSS
Procedure: (§1)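 A pool of 90-nt single-stranded DNAs with seven random bases just before the constant AC of the nick site (name = the seven bases) was cut by 3 µM recombinant His6-SUMO-tagged Rep nickase domain (300 nM DNA, 50 mM HEPES pH 8.0, 50 mM NaCl, 1 mM MnCl2, 1 h, 37 °C, three replicates). Uncut DNA was amplified and sequenced.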

[2] = test system: T2, Rep nickase domain of banana bunchy top virus
T2 sequence (Rep 1-94, printed without the tag): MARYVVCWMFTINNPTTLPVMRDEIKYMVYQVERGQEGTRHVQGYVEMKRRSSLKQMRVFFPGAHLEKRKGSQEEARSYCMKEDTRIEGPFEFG
Procedure: as §1

[3] = test system: T3, Rep nickase domain of cabbage leaf curl virus
T3 sequence (Rep 1-116, printed without the tag): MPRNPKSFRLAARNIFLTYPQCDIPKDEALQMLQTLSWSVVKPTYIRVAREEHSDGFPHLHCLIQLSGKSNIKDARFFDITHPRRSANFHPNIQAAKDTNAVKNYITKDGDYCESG
Procedure: as §1

[4] = test system: T4, Rep nickase domain of chickpea chlorotic dwarf virus
T4 sequence (Rep 1-124, printed without the tag): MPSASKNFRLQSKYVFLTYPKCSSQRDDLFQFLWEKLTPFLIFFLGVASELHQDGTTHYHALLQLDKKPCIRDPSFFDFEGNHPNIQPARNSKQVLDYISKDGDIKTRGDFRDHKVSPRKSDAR
Procedure: as §1

[5] = test system: T5, Rep nickase domain of faba bean necrotic yellows virus
T5 sequence (Rep 1-98, printed without the tag): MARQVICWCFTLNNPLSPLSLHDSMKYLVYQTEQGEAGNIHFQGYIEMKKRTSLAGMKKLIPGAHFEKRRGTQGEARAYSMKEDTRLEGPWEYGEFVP
Procedure: as §1

[6] = test system: T6, Rep nickase domain of maize striate mosaic virus
T6 sequence (Rep 1-117, printed without the tag): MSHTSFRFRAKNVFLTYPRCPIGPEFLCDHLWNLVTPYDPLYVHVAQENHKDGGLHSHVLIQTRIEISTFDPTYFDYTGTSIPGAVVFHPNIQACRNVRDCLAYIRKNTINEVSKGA
Procedure: as §1

[7] = test system: T7, Rep nickase domain of porcine circovirus 2
T7 sequence (Rep 2-116, printed without the tag): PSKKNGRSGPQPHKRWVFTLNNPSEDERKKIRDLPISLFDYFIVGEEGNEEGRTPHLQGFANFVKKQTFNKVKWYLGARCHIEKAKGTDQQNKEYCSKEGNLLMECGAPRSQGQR
Procedure: as §1

[8] = test system: T8, Rep nickase domain of tomato golden mosaic virus
T8 sequence (Rep 1-124, printed without the tag): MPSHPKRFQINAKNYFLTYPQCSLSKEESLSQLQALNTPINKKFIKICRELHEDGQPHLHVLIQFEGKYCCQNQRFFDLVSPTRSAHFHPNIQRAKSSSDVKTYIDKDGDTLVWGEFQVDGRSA
Procedure: as §1

[9] = test system: T9, Rep nickase domain of tomato yellow leaf curl virus
T9 sequence (Rep 1-136, printed without the tag): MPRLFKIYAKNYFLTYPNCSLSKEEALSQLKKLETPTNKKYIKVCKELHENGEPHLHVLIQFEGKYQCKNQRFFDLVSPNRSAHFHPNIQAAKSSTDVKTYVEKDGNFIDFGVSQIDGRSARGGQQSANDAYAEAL
Procedure: as §1

[10] = test system: T10, Rep nickase domain of wheat dwarf virus
T10 sequence (Rep 1-137, printed without the tag): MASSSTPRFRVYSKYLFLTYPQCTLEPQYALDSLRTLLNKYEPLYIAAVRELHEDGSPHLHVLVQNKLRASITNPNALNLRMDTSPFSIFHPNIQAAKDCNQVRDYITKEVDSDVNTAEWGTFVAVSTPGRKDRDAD
Procedure: as §1

| Sequence | uncleaved DNA left (log2) [1] | uncleaved DNA left (log2) [2] | uncleaved DNA left (log2) [3] | uncleaved DNA left (log2) [4] | uncleaved DNA left (log2) [5] | uncleaved DNA left (log2) [6] | uncleaved DNA left (log2) [7] | uncleaved DNA left (log2) [8] | uncleaved DNA left (log2) [9] | uncleaved DNA left (log2) [10] |
| --- | --- | --- | --- | --- | --- | --- | --- | --- | --- | --- |
| CGGGCGT | 0.0279 | 0.0135 | 0.079 | 0.417 | 0.0181 | 0.279 | 0.0919 | -0.018 | -0.00413 | 0.00387 |
| CCGCGAA | -0.178 | -0.227 | -0.53 | -0.536 | -0.247 | -0.909 | -0.155 | -0.18 | -0.371 | -0.324 |
| TCTCTAT | -0.00359 | -0.124 | 0.206 | -0.538 | -0.0695 | -0.251 | -0.131 | 0.0581 | -0.0719 | 0.0357 |
| AAGAAGC | 0.00526 | 0.202 | 0.015 | -0.133 | 0.172 | -0.661 | 0.232 | 0.128 | 0.0715 | 0.0516 |
| CGAGTTG | -0.00964 | -0.00441 | -0.095 | 0.561 | -0.0856 | 1.11 | -0.0904 | 0.0612 | -0.0777 | -0.00602 |
| CGTCGAA | -0.0735 | -0.0603 | -0.175 | -0.327 | -0.117 | -0.754 | 0.0522 | -0.123 | -0.212 | -0.193 |
| AGCGTGT | -0.0489 | -0.0385 | -0.0321 | 0.406 | -0.181 | 1.07 | -0.0494 | 0.0637 | -0.0749 | 0.0198 |
| CGGCGCG | -0.195 | -0.139 | -0.679 | -0.336 | -0.15 | -0.842 | 0.0103 | -0.0371 | -0.133 | -0.221 |
| CCACAGC | 0.0711 | 0.0831 | -0.387 | -0.521 | -0.0747 | -1.06 | 0.201 | 0.00612 | -0.099 | 0.0524 |
| GAGGGCC | -0.0805 | 0.0622 | 0.503 | 1.09 | -0.0175 | 1.64 | 0.21 | 0.0228 | 0.0617 | 0.167 |
| AAGTGAT | 0.0297 | -0.121 | 0.205 | 1.61 | -0.0557 | 1.84 | -3.19 | 0.18 | -0.179 | 0.0591 |
| GTGGACG | -0.114 | 0.0349 | 0.668 | 1.7 | -0.0939 | 1.92 | 0.0997 | -0.0183 | 0.0207 | 0.107 |
| CACGACT | 0.051 | -0.162 | -0.189 | -1.43 | 0.0143 | 1.05 | 0.0272 | -0.0368 | -0.104 | 0.00925 |
| TGTGCAA | -0.0413 | 0.153 | 0.256 | 0.658 | 0.0846 | 0.58 | 0.0819 | 0.0209 | 0.108 | 0.063 |
| CCGCAAT | 0.0236 | 0.025 | 0.215 | -0.198 | 0.032 | -0.0929 | -0.178 | -0.0898 | -0.238 | -0.193 |
| ACTTCAT | 0.0212 | 0.0276 | -0.0762 | -1.03 | -0.0428 | -0.631 | -0.201 | 0.0857 | 0.000799 | 0.0975 |
| TCCTGAT | -0.243 | -0.203 | 0.0372 | -0.0139 | -0.0811 | 0.665 | -2.59 | -0.114 | -0.0836 | -0.0849 |
| TCCATTA | -0.133 | -0.208 | -0.0468 | -1.13 | 0.0514 | -0.931 | -0.117 | -0.133 | 0.0314 | -0.143 |
| GCGGTGA | -0.0067 | -0.172 | 0.136 | 0.602 | -0.101 | 0.675 | 0.0874 | -0.0921 | -0.134 | 0.012 |
| TGATGAC | 0.00192 | 0.0305 | 0.203 | 0.575 | -0.00414 | 0.357 | 0.083 | -0.00682 | -0.0328 | 0.0399 |
| CAATTGA | 0.0785 | -0.0308 | -0.593 | -0.693 | 0.0699 | -1.2 | -0.0478 | -0.0356 | 0.0707 | 0.0122 |
| CATAGCA | 0.154 | 0.101 | -0.449 | -0.897 | 0.0471 | -1.14 | 0.123 | 0.0233 | 0.209 | 0.0692 |
| AGAGGAG | 0.0794 | 0.0603 | -0.0154 | 0.811 | 0.0465 | 0.312 | 0.206 | 0.0656 | 0.00818 | 0.0723 |
| TCGTTCC | -0.129 | -0.237 | 0.189 | 0.0538 | -0.00337 | 0.0733 | -0.146 | -0.0685 | 0.0614 | -0.0479 |
| GATCCCA | -0.0598 | -0.0216 | 0.215 | -0.0555 | -0.079 | 0.917 | -0.135 | 0.000549 | 0.00634 | 0.0534 |
| AATAGTG | 0.026 | -0.00772 | -0.622 | -0.737 | 0.0363 | -1.17 | 0.153 | -0.0977 | 0.00758 | -0.0687 |
| GCGAACC | -0.0315 | 0.00743 | 0.0574 | 0.204 | 0.0363 | -0.0482 | -0.134 | -0.0694 | 0.0118 | 0.0908 |
| ATCCACG | -0.0617 | -0.0873 | -0.965 | -0.195 | -0.127 | -1.13 | 0.0691 | -0.0977 | -0.14 | -0.252 |
| TTAATCC | 0.0288 | -0.00716 | 0.411 | 0.135 | 0.0015 | -0.103 | 0.061 | -0.057 | 0.0136 | 0.0692 |
| GGCAATC | 0.0844 | 0.0817 | 0.516 | 1.47 | 0.000615 | 1.84 | 0.205 | -0.0305 | 0.0647 | 0.112 |

— the supplement of paper PMC7826260
